# According to PMC11637378, “Optogenetic screening of MCT1 activity implicates a cluster of non-steroidal anti-inflammatory drugs (NSAIDs) as inhibitors of lactate transport” (PLOS ONE, 2024):
# Key:
# [1] = system: R. norvegicus MCT1 (F360C); assay: High throughput assay optimization and validation (96/384-well, AZD3965 versus DMSO, Z-factor); settings: for OD600 AVG: 10 μM, 24 hours
# [2] = target: R. norvegicus MCT1 (F360C) (UniProt P36035+P53987, F360C); assay: as above
# Chain of R. norvegicus MCT1 (F360C) (P36035+P53987 fused P53987:F360C): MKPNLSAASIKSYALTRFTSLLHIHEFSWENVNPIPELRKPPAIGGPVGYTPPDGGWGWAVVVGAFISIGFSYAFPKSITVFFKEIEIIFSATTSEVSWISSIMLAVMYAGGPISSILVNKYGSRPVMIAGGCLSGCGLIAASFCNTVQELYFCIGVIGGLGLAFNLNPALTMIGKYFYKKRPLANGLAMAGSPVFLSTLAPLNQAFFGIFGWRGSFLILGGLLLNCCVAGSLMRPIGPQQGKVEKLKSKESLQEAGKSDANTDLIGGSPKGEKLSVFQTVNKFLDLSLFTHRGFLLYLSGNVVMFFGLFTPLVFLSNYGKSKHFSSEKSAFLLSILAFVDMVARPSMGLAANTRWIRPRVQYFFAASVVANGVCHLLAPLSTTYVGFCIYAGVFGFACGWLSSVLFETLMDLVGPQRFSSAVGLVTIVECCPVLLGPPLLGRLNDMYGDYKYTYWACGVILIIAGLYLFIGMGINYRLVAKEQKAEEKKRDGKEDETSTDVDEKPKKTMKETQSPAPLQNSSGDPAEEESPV
compound,measurement,setting,value
Cc1[nH]nc(C(F)(F)F)c1Cc1sc2c(c1C(=O)N1C[C@](C)(O)CO1)c(=O)n(C)c(=O)n2C(C)C [AZD3965],OD600 AVG,"[1]; 96-well, Non-shaking + breathe-right, Volume 50, SAWy710 (empty vector)",0.0547
same,OD600 AVG,"[1]; 96-well, Non-shaking + breathe-right, Volume 50, SAWy738 (MCT1)",0.07155
same,OD600 AVG,"[1]; 96-well, Non-shaking + breathe-right, Volume 100, SAWy710 (empty vector)",0.06775
same,OD600 AVG,"[1]; 96-well, Non-shaking + breathe-right, Volume 100, SAWy738 (MCT1)",0.09475
same,OD600 AVG,"[1]; 96-well, Non-shaking + breathe-right, Volume 200, SAWy710 (empty vector)",0.0846
same,OD600 AVG,"[1]; 96-well, Non-shaking + breathe-right, Volume 200, SAWy738 (MCT1)",0.1187
same,OD600 AVG,"[1]; 96-well, Non-shaking, Volume 50, SAWy710 (empty vector)",0.05153
same,OD600 AVG,"[1]; 96-well, Non-shaking, Volume 50, SAWy738 (MCT1)",0.06245
same,OD600 AVG,"[1]; 96-well, Non-shaking, Volume 100, SAWy710 (empty vector)",0.07205
same,OD600 AVG,"[1]; 96-well, Non-shaking, Volume 100, SAWy738 (MCT1)",0.09025
same,OD600 AVG,"[1]; 96-well, Non-shaking, Volume 200, SAWy710 (empty vector)",0.09027
same,OD600 AVG,"[1]; 96-well, Non-shaking, Volume 200, SAWy738 (MCT1)",0.1228
same,OD600 AVG,"[1]; 96-well, Shaking, Volume 50, SAWy710 (empty vector)",0.0545
same,OD600 AVG,"[1]; 96-well, Shaking, Volume 50, SAWy738 (MCT1)",0.0612
same,OD600 AVG,"[1]; 96-well, Shaking, Volume 100, SAWy710 (empty vector)",0.0709
same,OD600 AVG,"[1]; 96-well, Shaking, Volume 100, SAWy738 (MCT1)",0.07047
same,OD600 AVG,"[1]; 96-well, Shaking, Volume 200, SAWy710 (empty vector)",0.1137
same,OD600 AVG,"[1]; 96-well, Shaking, Volume 200, SAWy738 (MCT1)",0.1566
same,OD600 AVG,"[1]; 384-well, Non-shaking + breathe-right, 25 ul, SAWy710 (empty vector)",0.07738
same,OD600 AVG,"[1]; 384-well, Non-shaking + breathe-right, 25 ul, SAWy738 (MCT1)",0.09315
same,OD600 AVG,"[1]; 384-well, Non-shaking + breathe-right, 50 ul, SAWy710 (empty vector)",0.103
same,OD600 AVG,"[1]; 384-well, Non-shaking + breathe-right, 50 ul, SAWy738 (MCT1)",0.155
same,OD600 AVG,"[1]; 384-well, Non-shaking + breathe-right, 100 ul, SAWy710 (empty vector)",0.1367
same,OD600 AVG,"[1]; 384-well, Non-shaking + breathe-right, 100 ul, SAWy738 (MCT1)",0.2457
same,Z-score versus SAWy710 DMSO treatment (average),"[1]; 384-well, Non-shaking + breathe-right, Volume 50, SAWy710",0.2346
same,Z-score versus SAWy710 DMSO treatment (average),"[1]; 384-well, Non-shaking + breathe-right, Volume 50, SAWy738",7.403
same,OD600 AVG,"[1]; 384-well, Non-shaking, 25 ul, SAWy710 (empty vector)",0.06877
same,OD600 AVG,"[1]; 384-well, Non-shaking, 25 ul, SAWy738 (MCT1)",0.08127
same,OD600 AVG,"[1]; 384-well, Non-shaking, 50 ul, SAWy710 (empty vector)",0.09715
same,OD600 AVG,"[1]; 384-well, Non-shaking, 50 ul, SAWy738 (MCT1)",0.1407
same,OD600 AVG,"[1]; 384-well, Non-shaking, 100 ul, SAWy710 (empty vector)",0.1266
same,OD600 AVG,"[1]; 384-well, Non-shaking, 100 ul, SAWy738 (MCT1)",0.2447
same,Z-score versus SAWy710 DMSO treatment (average),"[1]; 384-well, Non-shaking, Volume 50, SAWy710",-0.5592
same,Z-score versus SAWy710 DMSO treatment (average),"[1]; 384-well, Non-shaking, Volume 50, SAWy738",3.431
same,OD600 AVG,"[1]; 384-well, Shaking, 25 ul, SAWy710 (empty vector)",0.08755
same,OD600 AVG,"[1]; 384-well, Shaking, 25 ul, SAWy738 (MCT1)",0.09823
same,OD600 AVG,"[1]; 384-well, Shaking, 50 ul, SAWy710 (empty vector)",0.09387
same,OD600 AVG,"[1]; 384-well, Shaking, 50 ul, SAWy738 (MCT1)",0.1292
same,OD600 AVG,"[1]; 384-well, Shaking, 100 ul, SAWy710 (empty vector)",0.1287
same,OD600 AVG,"[1]; 384-well, Shaking, 100 ul, SAWy738 (MCT1)",0.2147
same,OD600 average of 10 wells,"[1]; SAWy710 (empty vector), AZD3965 10 μM, non-permissive, 384-well 50 μl without shaking, three independent replicates (S7 Fig), listed as AZD",0.1099 and 0.1063 and 0.09977
same,mean plate reading (10 wells),"[1]; strain SAWy710, Replicate1 second read, left at non-permissive conditions throughout",0.1838
same,mean plate reading (10 wells),"[1]; strain SAWy710, non-permissive phase, first read, Replicates 1-3, listed as AZD",0.1099 and 0.1063 and 0.09977
same,mean plate reading (10 wells),"[1]; strain SAWy710, perm (permissive) phase, second read, Replicates 2, 3, listed as AZD",0.7846 and 0.7825
same,growth in continuous darkness,"[2]; 384-well, 48-hour period non-permissive (Fig 3C)",do not recover growth
same,growth after transfer to permissive blue light,"[2]; 384-well, 24 h non-permissive then 24 h permissive (Fig 3C)",rescues the growth
same,OD600 average of 10 wells,"[2]; SAWy741 (MCT1), AZD3965 10 μM, non-permissive, 384-well 50 μl without shaking, three independent replicates (S7 Fig), listed as AZD",0.131 and 0.1123 and 0.1286
same,mean plate reading (10 wells),"[2]; strain SAWy741, Replicate1 second read, left at non-permissive conditions throughout",0.7466
same,mean plate reading (10 wells),"[2]; strain SAWy741, non-permissive phase, first read, Replicates 1-3, listed as AZD",0.131 and 0.1123 and 0.1286
same,mean plate reading (10 wells),"[2]; strain SAWy741, perm (permissive) phase, second read, Replicates 2, 3, listed as AZD",0.7973 and 0.8192

# Where “and” joins values, the source holds several entries; their conditions need not be identical. Identical values can stand only once.
